Measurements published in the supplement of paper PMC12217912.
The other results are listed elsewhere or left out. Sequences were assembled here from the parent chain. Inactive controls read about 0.05.

B1: TEV protease; numbered along this chain (parent)
chain: MGESLFKGPRDYNPISSSICHLTNESDGHTTSLYGIGFGPFIITNKHLFRRNNGTLVVQSLHGVFKVKDTTTLQQHLVDGRDMIIIRMPKDFPPFPQKLKFREPQREERICLVTTNFQTKSMSSMVSDTSCTFPSGDGIFWKHWIQTKDGQCGSPLVSTRDGFIVGIHSASNFTNTNNYFTSVPKNFMELLTNQEAQQWVSGWRLNADSVLWGGHKVFMVKPEEPFQPVKEATQL

Variants of: B1
Assay: raw area under fraction-flipped curve 0-4 h after induction (AUC4h, not background-subtracted), DNA-recorder readout of cleavage of the substrate (dimensionless); higher = more cleavage of the substrate by the protease variant
Conditions: temperature: 34 °C; time window: 0-4 h after rhamnose induction
Procedure: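 In vivo DNA recorder in E. coli TOP10(DE3) ΔrhaA at 34 °C. Each TEVp single-site mutant (parent TEVp 0) is paired with a single-site variant of the 7-mer TEVs (canonical ENLYFQ|S). The substrate sits between flexible linkers in a Bxb1-sfGFP-TEVs-SsrA fusion, so cleavage stabilises Bxb1 and speeds flipping of a recombination array, read by NGS. The value is the raw area under the fraction-flipped curve over 0-4 h after rhamnose induction (AUC4h), with ≥20 reads per time point. It is not background-subtracted; inactive controls average about 0.047.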
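Note: Bxb1 expression induced with 0.2% (w/v) L-rhamnose at OD600 near 0.5, cultures sampled hourly, flipped fraction per protease–substrate barcode pair counted by paired-end Illumina sequencing.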

Variant	area with substrate ENLYFQA	area with substrate ENLYFQC	area with substrate ENLYFQG	area with substrate ENLYFQH	area with substrate ENLYFQI	area with substrate ENLYFQK	area with substrate ENLYFQL	area with substrate ENLYFQM	area with substrate ENLYFQN	area with substrate ENLYFQP	area with substrate ENLYFQR	area with substrate ENLYFQS	area with substrate ENLYFQT	area with substrate ENLYFQV	area with substrate ENLYFQW	area with substrate ENLYFQY	area with substrate ENLYFQD	area with substrate ENLYFQE	area with substrate ENLYFQF	area with substrate ENLYFQQ
N177P	0.0555	0.0698	0.0536	0.0504	0.0516	0.0605	0.0551	0.0813	0.0579	0.0607	0.0547	0.0641	0.0674	0.0562	0.0566	0.0591				
N178A	0.0854	0.141			0.0793					0.0517	0.0536	0.108			0.0688		0.105			
Y179A	0.0668		0.0518					0.0628				0.0581	0.0631					0.0541		
Y179E	0.0661	0.0495				0.0669	0.0504				0.0426	0.0669	0.0349			0.0528				
Y179S	0.0693	0.0579	0.0547		0.0478	0.0673		0.0685	0.0607	0.0677	0.0545	0.0601	0.0642	0.0495	0.0645	0.0803	0.0583		0.0562	0.0682
S182R	0.0699				0.0653	0.0547	0.0702	0.0686	0.0364		0.0545	0.069	0.0629		0.0412	0.0525	0.0597			
V183W	0.0547	0.08			0.0633		0.0589	0.0589	0.0631	0.0647	0.058	0.078		0.0599	0.0603	0.0565	0.0515		0.0497	
P184F	0.0895		0.0626		0.0636	0.0587	0.069	0.0669	0.0631	0.0492	0.0562	0.0689		0.0595	0.0521	0.0251	0.0846		0.0611	
K185C	0.0929		0.101		0.0687		0.0633				0.0857	0.109	0.0748		0.0503		0.0709		0.0817	
F187Y	0.0647		0.0644	0.0768	0.0564	0.0557	0.0639	0.0832	0.0612	0.0388	0.0559	0.0755	0.0581	0.046	0.0711		0.0525		0.0528	0.076
M188N	0.13	0.114	0.0839	0.0577		0.0478	0.0784		0.07		0.0423	0.0957		0.065	0.0835	0.073	0.0615			
E189C	0.0626		0.0826		0.0601	0.0592	0.0486	0.0866	0.0691	0.0577	0.0383	0.0777	0.0474	0.0348	0.0612	0.0815	0.0614		0.0591	0.0717
E189G	0.0774	0.121	0.0833		0.0535	0.056	0.0735	0.0904	0.0959	0.0716	0.048	0.097	0.0557	0.0525		0.0742	0.078	0.0582		0.0867
E189N	0.0873	0.11	0.106	0.0715	0.0601	0.0613	0.0595	0.0821	0.109	0.0565	0.056	0.102	0.062	0.0603		0.0792	0.0821		0.119	0.0745
E189T	0.0855	0.13			0.0711	0.0732	0.056	0.0891	0.0878	0.0591	0.0441	0.102	0.0648		0.0496	0.094	0.073			0.0657
L191P	0.0571				0.0417			0.053	0.0483	0.0606	0.0457	0.0562		0.0513	0.0505	0.0477	0.056			
Q194H	0.101	0.116	0.0842	0.086	0.0742	0.0636	0.0605	0.0944	0.0736		0.0619	0.107			0.0768	0.0818	0.0995		0.0785	
Q194N	0.138	0.156		0.0717			0.0627	0.113	0.156		0.0639	0.114	0.0623	0.048	0.0751	0.0632	0.0849	0.0642		
E195A	0.107	0.0787	0.0826	0.0798	0.082		0.0695		0.0817	0.0595	0.0438	0.112	0.0708	0.0601	0.0624		0.0722			0.0726
E195R	0.0857	0.115	0.1	0.0979		0.0603	0.0561	0.0955	0.063	0.0641		0.0948			0.075		0.0781			
A196D	0.1		0.0975	0.107	0.0701	0.0632	0.069	0.0848	0.073	0.0556		0.0981			0.0518	0.0666			0.0633	0.0708
A196F	0.121	0.11	0.0824	0.0669	0.0612	0.0682	0.0646	0.0762	0.083	0.0561	0.0468	0.108	0.0699			0.0934		0.0724		0.0853
A196W	0.0988				0.0614				0.084	0.0552	0.0656	0.0985			0.062	0.0937	0.0573	0.0584		
Q197V	0.0922	0.0925	0.165		0.0602	0.0595	0.0497	0.0677	0.077	0.051		0.108	0.0654	0.0607	0.06	0.0766	0.0621	0.0471		0.0581
Q198T	0.0939	0.129	0.0958	0.0809			0.0665	0.101	0.0779		0.0566	0.106	0.0854	0.0509	0.0613		0.0619			
